According to the supplement of paper PMC4166925:
± gives the standard deviation of the averaged measurements. Over roughly 33,000 sequences, “E-score (dimensionless, -0.5 to 0.5)” has its median near -0.049; the highest 2% begin near 0.37. The list shows a part of the results.

system: T1, PmTbr T-box DNA-binding domain (GST fusion); test: PBM E-score of 8-mer (E-score (dimensionless, -0.5 to 0.5)); Tbr is Tbrain of the sea star Patiria miniata (Pm) or the sea urchin Strongylocentrotus purpuratus (Sp); higher = stronger binding preference; most listed sequences are background and not binding sites; conditions: the construct has about 5 more residues each side
T1 sequence: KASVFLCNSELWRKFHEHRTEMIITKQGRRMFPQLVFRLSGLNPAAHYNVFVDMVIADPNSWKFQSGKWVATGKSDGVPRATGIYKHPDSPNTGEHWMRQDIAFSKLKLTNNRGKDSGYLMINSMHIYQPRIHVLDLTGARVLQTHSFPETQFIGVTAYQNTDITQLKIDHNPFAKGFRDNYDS
Method in brief: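 Expression of GST-fused Tbr T-box DNA-binding domains, each holding the full T-box plus roughly five flanking residues, was carried out in BL21 E. coli at 20 °C, with purification by glutathione affinity chromatography. Universal Agilent arrays made double-stranded by primer extension were incubated with the protein at 200 nM in PBS (pH 7.5), then scanned and quantified. All ungapped 8-mers were scored from probe intensities, and each received an enrichment E-score from the Universal PBM Analysis Suite, averaged over duplicate arrays.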

| Sequence | PBM E-score of 8-mer |
| --- | --- |
| CCAAAATC | 0.0433 ± 0.084 |
| AAATTTTA | 0.052 ± 0.033 |
| GCGCCACA | 0.2 ± 0.0055 |
| AGACGCCC | -0.196 ± 0.04 |
| ATGTGCCA | 0.375 ± 0.0048 |
| AATTACAG | -0.269 ± 0.055 |
| CCTATCCC | 0.0225 ± 0.07 |
| CTTAAAGC | -0.251 ± 0.07 |
| CCACTGGA | -0.214 ± 0.023 |
| ATCCTGAG | -0.118 ± 0.0029 |
| TAAAGGGA | -0.131 ± 0.021 |
| AGATACGG | -0.0614 ± 0.04 |
| AAGTCCGA | -0.0578 ± 0.015 |
| GATATAGC | 0.0855 ± 0.025 |
| CAATCGAA | -0.184 ± 0.0077 |
| CAAGCCCA | -0.185 ± 0.1 |
| TAGAGGCA | -0.155 ± 0.057 |
| GTTTCTCA | 0.225 ± 0.061 |
| AACTGGTG | 0.164 ± 0.041 |
| AAGCTGGA | 0.0394 ± 0.035 |
| CACCATCA | 0.224 ± 0.014 |
| ATCCAATG | -0.144 ± 0.029 |
| CTCATGGA | -0.25 ± 0.087 |
| GGGATGTA | -0.0878 ± 0.0052 |
| AAGAGACC | -0.2107 ± 0.0016 |

| Sequence | PBM E-score of 8-mer |
| --- | --- |
| GGGGAAAC | -0.21 ± 0.03 |
| GTATTGAC | -0.00293 ± 0.055 |
| ACGACCGA | -0.05 ± 0.078 |
| GACACTCC | 0.336 ± 0.029 |
| CCAGGAGC | -0.0936 ± 0.022 |
| AAGAGCCA | -0.141 ± 0.043 |
| GACACATC | 0.372 ± 0.0069 |
| CCTTTTAA | -0.0121 ± 0.037 |
| CTGCGATA | 0.169 ± 0.046 |
| CAAGCCGC | 0.0278 ± 0.004 |
| ATTGCATG | -0.2595 ± 0.0022 |
| GCTTTGTA | -0.27 ± 0.058 |
| CCCTGCCC | -0.141 ± 0.066 |
| ACTTTGAG | 0.207 ± 0.011 |
| AGTAAATG | -0.17 ± 0.012 |
| AACGATCC | -0.103 ± 0.02 |
| ACGGTACA | -0.149 ± 0.085 |
| CAGTCCTC | -0.118 ± 0.032 |
| ATCCCGTC | -0.18 ± 0.067 |
| AATGGTCG | -0.249 ± 0.14 |
| AAGGGGGT | 0.113 ± 0.0083 |
| TCATGAGA | -0.129 ± 0.02 |
| CAAAGGAG | -0.205 ± 0.055 |
| CATGACGA | -0.151 ± 0.0077 |
| ATAAAGAG | -0.0745 ± 0.02 |

| Sequence | PBM E-score of 8-mer |
| --- | --- |
| AAACGTGT | 0.366 ± 0.013 |
| GACGGCCA | 0.00629 ± 0.033 |
| GCGCCGTA | 0.126 ± 0.099 |
| CACTGATG | 0.122 ± 0.0034 |
| ATAAGTCA | -0.0907 ± 0.0094 |
| ACTTATAA | 0.0259 ± 0.035 |
| TCTGAGAA | -0.135 ± 0.0068 |
| CAAGCCCG | -0.148 ± 0.026 |
| ATCGCGAG | 0.249 ± 0.0038 |
| AGTAGCAG | -0.0497 ± 0.024 |
| GAAGTTAC | -0.0296 ± 0.068 |
| CCAATACA | -0.093 ± 0.055 |
| GATTGTAC | 0.0159 ± 0.031 |
| ATCATTCG | -0.107 ± 0.029 |
| TACCAGCA | -0.0256 ± 0.03 |
| CACCATAA | 0.022 ± 0.028 |
| GGGAGCAC | -0.22 ± 0.099 |
| GTATTTTA | -0.18 ± 0.11 |
| ACCTGTGA | 0.4002 ± 0.002 |
| AGGTGTGG | 0.483 ± 0.0024 |
| GTCTAGGA | -0.304 ± 0.01 |
| AGATGGCG | 0.007 ± 0.034 |
| ACCCCTCT | -0.0694 ± 0.019 |
| AGCTAGAG | -0.103 ± 0.061 |
| CGGCTTTC | -0.0428 ± 0.074 |

| Sequence | PBM E-score of 8-mer |
| --- | --- |
| ACTCCTTC | 0.0419 ± 0.014 |
| ACCGTGTG | 0.218 ± 0.0082 |
| GAGGTCTA | -0.328 ± 0.07 |
| CGCAATCC | -0.0396 ± 0.086 |
| AATTACTC | 0.129 ± 0.0023 |
| GTTAGGCA | -0.0852 ± 0.013 |
| ACTGTCAG | 0.129 ± 0.034 |
| CGTTGGCA | 0.287 ± 0.0039 |
| AACATCGT | -0.127 ± 0.049 |
| CTAGAGAC | -0.017 ± 0.029 |
| GACCTCTC | -0.109 ± 0.026 |
| CTCGGAAG | -0.178 ± 0.042 |
| AACTACCG | -0.0172 ± 0.022 |
| GATAAACC | -0.0666 ± 0.022 |
| GGGGTTGA | -0.000915 ± 0.043 |
| ACATGTGC | 0.0476 ± 0.0078 |
| CGGGTCGA | -0.018 ± 0.084 |
| AAAGGGTG | 0.259 ± 0.044 |
| CCTACCGA | -0.157 ± 0.0054 |
| ACGGATTG | -0.0811 ± 0.0095 |
| GATGCTGC | -0.232 ± 0.012 |
| GCATTGCA | -0.0859 ± 0.03 |
| AAGGGCAC | 0.057 ± 0.087 |
| CGGAGTCC | -0.183 ± 0.043 |
| CGCGGCTA | 0.0806 ± 0.068 |

| Sequence | PBM E-score of 8-mer |
| --- | --- |
| ACGCAACC | -0.0326 ± 0.08 |
| ACTCATAA | -0.114 ± 0.035 |
| CTCTAAAG | -0.228 ± 0.016 |
| AGCTCATG | -0.0399 ± 0.099 |
| CTGACGCC | 0.318 ± 0.0083 |
| CTGCCCCC | -0.345 ± 0.02 |
| AAAGGTAG | -0.0277 ± 0.0096 |
| ACCACCTA | 0.205 ± 0.0085 |
| ATCCCTAG | -0.00496 ± 0.042 |
| CACTGAAC | 0.0119 ± 0.0057 |
| ACGCGGTC | 0.0856 ± 0.035 |
| CGCCCCAC | 0.0368 ± 0.00072 |
| AGGACTCC | -0.326 ± 0.051 |
| AGCTTGCC | 0.0454 ± 0.0096 |
| AACGAGCC | -0.319 ± 0.096 |
| GCGATGGA | -0.00065 ± 0.015 |
| AGTATATA | -0.0889 ± 0.0048 |
| CCACTAGA | -0.233 ± 0.046 |
| ACGTGGAG | -0.178 ± 0.025 |
| AGACTGTC | -0.112 ± 0.036 |
| CCGGCTAC | -0.11 ± 0.03 |
| CCCACGAG | 0.0603 ± 0.024 |
| CTTGCCTC | -0.126 ± 0.0064 |
| ATGCCCTA | -0.258 ± 0.0039 |
| CCTCTTCG | 0.0574 ± 0.043 |

| Sequence | PBM E-score of 8-mer |
| --- | --- |
| CCAAATAG | -0.0315 ± 0.032 |
| CTGAAAAC | -0.0017 ± 0.078 |
| CATAAATA | -0.113 ± 0.065 |
| CGGTGTAC | -0.0932 ± 0.052 |
| GAGGTATC | -0.108 ± 0.0036 |
| ATACTGAC | -0.134 ± 0.051 |
| TCGAACGA | -0.0363 ± 0.084 |
| ACCCATCC | -0.237 ± 0.015 |
| GAGCAATA | -0.185 ± 0.0054 |
| AGCACTTC | 0.313 ± 0.012 |
| AAGTGGGG | 0.189 ± 0.07 |
| CATTAGTA | -0.141 ± 0.053 |
| TCGATAGA | 0.0213 ± 0.016 |
| TCATCAAA | -0.128 ± 0.047 |
| TCGTTAAA | -0.0308 ± 0.12 |
| CACATCTC | 0.169 ± 0.049 |
| ACCGTTAT | 0.109 ± 0.012 |
| ACTCATCA | -0.00865 ± 0.0078 |
| AATCGATA | 0.132 ± 0.053 |
| AGGCACCA | -0.171 ± 0.024 |
| CCTCCAAG | -0.0919 ± 0.026 |
| ATTAACAA | 0.173 ± 0.14 |
| GAACACCA | 0.0994 ± 0.0056 |
| AGAGCCCG | -0.24 ± 0.017 |
| ACGCCTAC | 0.261 ± 0.034 |

| Sequence | PBM E-score of 8-mer |
| --- | --- |
| AATAGTTA | -0.0226 ± 0.045 |
| GAATGACC | -0.13 ± 0.034 |
| CCTTCCGC | 0.219 ± 0.025 |
| GAGGATCC | -0.0137 ± 0.048 |
| GTCTCGTA | -0.16 ± 0.0046 |
| ACACATGC | 0.313 ± 0.041 |
| CTCAAGCA | -0.2589 ± 0.00066 |
| AATCATGC | -0.121 ± 0.018 |
| TAAACAGA | 0.158 ± 0.016 |
| ATCACCTA | 0.392 ± 0.022 |
| CATTCTGC | 0.0492 ± 0.069 |
| AAGTGGAG | -0.269 ± 0.042 |
| ATCCGTTC | -0.166 ± 0.0096 |
| AACGGTGA | 0.176 ± 0.036 |
| AATACAAT | -0.334 ± 0.023 |
| CACGACGA | -0.0644 ± 0.054 |
| ATGAGATC | -0.271 ± 0.074 |
| CAAATTAA | 0.00713 ± 0.076 |
| CAAAACGA | 0.0243 ± 0.034 |
| AACCAATG | -0.267 ± 0.0029 |
| GCGTATGA | -0.0712 ± 0.044 |
| AATTATAG | -0.276 ± 0.017 |
